Results from ChEMBL document CHEMBL4888484, “Replenishing the malaria drug discovery pipeline: Screening and hit evaluation of the MMV Hit Generation Library 1 (HGL1) against asexual blood stage Plasmodium falciparum ,using a nano luciferase reporter read-out” (2022).
The campaign covered roughly 150,000 compounds. About 540 (0.36%) showed an effect of 50% or more. The list shows a part of the results.

test system: Plasmodium falciparum; assay: Primary screen in NF54 nanoGlo assay, in single point, at 2uM, 72h; a lower Z score goes with more inhibition; format: functional, Erythrocyte; conditions: timepoint 72 hour

Row | SMILES | % Inhibition [%] | Z score
1 | CCn1ncnc1[C@H](C)Nc1nc(-c2ccncc2)nc2c1CNC2 | -1 | 0.26
2 | Cc1nsc(NC23CCC2CN(C(=O)C2CCCC2)C3)n1 (stereo not drawn) | 1 | -0.07
3 | Cc1csc(CNc2cccc(NC(=O)N3CCCCCC3)c2)n1 | -4 | 0.57
4 | Cc1ocnc1C(=O)N(CCOc1ccccc1)C[C@H]1CCCO1 | -14 | 2.37
5 | CC1CCCC(C)N1C(=O)c1sc2ncccc2c1N (stereo not drawn) | -17 | 1.81
6 | CCOc1ccc(N[C@@H](C)c2cnc(C)nc2C)cn1 | -1 | 0.1
7 | Cc1nn(-c2ccccc2)c2[nH]c(=O)c3c(c12)CCCC3 | -7 | 0.99
8 | C[C@@H](c1ccncn1)N(C)CC(=O)NC1CCCCCCC1 | -4 | 0.74
9 | Cc1ccc(-c2noc(-c3cn(CC(=O)Nc4ccc5c(c4)OCCO5)c4nc(C)ccc4c3=O)n2)cc1 | -13 | 2.09
10 | COC[C@]1(O)CCN(C(=O)c2cn(C)c3ccccc3c2=O)CC1(C)C | -9 | 1.21
11 | CC(C)(C)NC(=O)C(=O)NCCc1ccccc1 | -3 | 0.51
12 | CCNC(=O)N[C@@H]1C=C[C@@H](c2c(C)nn(-c3ccc(C(C)C)cc3)c2C)C1 | 9 | -1.36
13 | O=C(O)c1ccc2c(c1)CN(C(=O)Cc1ccc3c(c1)CCCO3)C2 | -9 | 1.01
14 | NC(=O)[C@H]1CCN(Cc2c(-c3ccccc3)nc3sccn23)C1 | -6 | 1.18
15 | CCOC(=O)c1nnc(-c2ccccc2)nc1C(=O)OCC | -8 | 1.17
16 | C[C@@](CO)(NCc1ncc[nH]1)C1CCCCC1 | -9 | 1.3
17 | CC(C)c1cc(C(=O)N[C@@H](C)c2nnnn2C)n[nH]1 | 9 | -1.47
18 | CN(C)C(=O)c1ccc(CN[C@H]2CCc3ccccc3OC2)[nH]1 | -3 | 0.33
19 | CCc1c(C(=O)Nc2cnccc2OC)nnn1-c1ccc(OC(C)C)cc1 | 3 | -0.54
20 | Cc1ccc2c(c1)[C@@H](NC(=O)C1COC(CCC(=O)O)C1)[C@H](C)C2 (stereo partly drawn) | -8 | 1.3
21 | c1ncc(CNCc2cncs2)s1 | -6 | 0.92
22 | Cc1cc(=O)n(CC(=O)Nc2ccc3c(c2)OCCO3)c(N2CCOCC2)n1 | -17 | 1.84
23 | CCc1nc(O)c(C(=O)N2CCOc3cc(F)c(F)cc32)cc1C | -5 | 0.67
24 | CCCCC(=O)N1CCc2[nH]nc(C(=O)NCCc3ccccc3)c2C1 | -6 | 1.07
